Data on 23 sequences can be found in the supplement of paper PMC10338343.

± gives the standard deviation. Only a part is listed here, and it is no random draw.

In one test the test system is MIWI (PIWIL1) piRISC loaded with L1MC piRNA (30 nt). As to the kind of experiment: pre-steady-state target cleavage rate (min^-1); MIWI and MILI are mouse PIWI proteins and EfPiwi is from a freshwater sponge; tags in brackets are library labels; higher = faster piRNA-guided slicing of the target. As to conditions: guide: L1MC piRNA 5'p-UAACUAAAUACUAUGCAAGCUGUAGGUCCU; auxiliary factor: 500 nM mouse GTSF1. Here is the method: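 Cleave-'n-Seq: a library of target RNAs (target site embedded in constant flanks, ACAGCATTCCGCGTTAGTGATATCCG... 5' flank; DNA-blocked outside the site) at 0.1 nM was incubated with 1 nM active mouse MILI or MIWI piRISC (synthetic 5'-monophosphorylated piRNA guide) with or without 500 nM mouse GTSF1 at 33 °C for 1 min to 16 h. Uncleaved targets were sequenced and normalised to non-target controls, and the pooled three trials were fitted to a burst-and-steady-state model to give the pre-steady-state cleavage rate (min^-1; k3 is constrained to at most 1e-4). Sequence is the target site only; target names encode pairing extent (gX:gY) and contiguous / 1-mismatch / 2-mismatch / bulge geometry. Fits with R² ≤ 0 are excluded.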
For the sequence UCCUCCUACAGCUUGCAUAGUUUUUAGAAA, the “pre-steady-state target cleavage rate” value stood at 0.235 ± 0.042.
The same measure, in the same setting: next, UCCACCUACAGCUUGCAUAGUUAAUUCAAA: 0.14 ± 0.046.
The same measure, in the same setting: next, UCCUGCUACAGCUUGCAUUGUAUUUUGUUA: 0.649 ± 0.048; UGCACCUACAGCUUGCUUAGUAUUUAGUUA: 1.25 ± 0.092.
In the case of UCCUGGAUCAGCUUGCAUAGUAUUUUCAUA, the “pre-steady-state target cleavage rate” value stood at 0.142 ± 0.024.
On the same count and under the same terms, for UCCUGGAACAGCUUGCAUACUAUUUUCAAA the value was 0.0459 ± 0.012.
On to UCCUGGAUGUCCUUGCAUAGUAAUUUAGUUA, for which the “pre-steady-state target cleavage rate” value amounted to 0.00935 ± 0.0055.
In the case of AGGACGUACUGCUUGCAUAGUAUUUAGUUA, the “pre-steady-state target cleavage rate” value was 0.965 ± 0.062.
Same read-out and setting: for UCCUGCUACAGCUUGCAUAGUAUUUAGGUUA the value was 0.604 ± 0.095; for UCCACCUACAGCUUGCAUAGUAUUUUGAAA, 0.298 ± 0.034; for UCGACCUACAGCUUGCAAUGUAUUUACAAA, 0.077 ± 0.018.
The same measure, in the same setting: next, AGGAGCUACAGCUUCCAUAGUAUUUAGUUA: 0.31 ± 0.03.
Consider UCCACCUACAGCUUGCAUAGUUAAUAGUAA, for which the “pre-steady-state target cleavage rate” value was found to be 0.131 ± 0.034.
On to UCCUCCUAGAGCUUGCAUUGUAUUUAGUUA, for which the “pre-steady-state target cleavage rate” value is 0.779 ± 0.026.
The same measure, in the same setting: next, UCCUGCUACAGCUUGCUAAGUAUUUAGAAA: 0.0567 ± 0.015; UCCUGGUACAGCUUCCAUUGUAUUUAGUUA: 0.124 ± 0.036.
Still for that read-out and setting: for UCCUGGAUGUGCUUGCAUAGUAUUUAGUAUA the value was 0.205 ± 0.023; for UCCUGGAUGUCCUUGCAUAGUAUCUUAGUUA, 0.0207 ± 0.0065; for UCCACCUACAGCUUGCAUAGUAUUUCGUUA, 0.455 ± 0.054.
Take AGGACCUACAGCUUGCAUAGUUAAUACAAA: the “pre-steady-state target cleavage rate” value is 0.199 ± 0.057.
In the case of UCCUCGUACAGCUUGCAUAGUAUUUAGUAA, the “pre-steady-state target cleavage rate” value amounted to 0.903 ± 0.048.
Turning to UGGACCUACAGCAUUGCAUAGUAUUUAGUUA, the “pre-steady-state target cleavage rate” value was found to be 1.27 ± 0.11.
Same read-out and setting: for UCCUCCUACAGCUUGCAAAGUAAUUAGUUA the value was 0.645 ± 0.031.

The test is the same for the next values; noted with them: guide: L1MC piRNA 5'p-UAACUAAAUACUAUGCAAGCUGUAGGUCCU; auxiliary factor: none (no GTSF1).
As for UCCUCCUACAGCUUGCAUAGUUUUUAGAAA, the “pre-steady-state target cleavage rate” value turned out to be 0.00418 ± 0.0021.
The same measure, in the same setting: for UCCUGCUACAGCUUGCAUUGUAUUUUGUUA the value was 0.0164 ± 0.0042; for UGCACCUACAGCUUGCUUAGUAUUUAGUUA, 0.031 ± 0.0064; for UCCUGGAUCAGCUUGCAUAGUAUUUUCAUA, 0.00506 ± 0.0023.
Regarding UCCUGGAUGUCCUUGCAUAGUAAUUUAGUUA, the “pre-steady-state target cleavage rate” value came out at 0.0037 ± 0.0027.
For AGGACGUACUGCUUGCAUAGUAUUUAGUUA, the “pre-steady-state target cleavage rate” value was found to be 0.0573 ± 0.0079.
UCCUGCUACAGCUUGCAUAGUAUUUAGGUUA: the “pre-steady-state target cleavage rate” value is 0.0187 ± 0.0056.
The same measure, in the same setting: next, UCCACCUACAGCUUGCAUAGUAUUUUGAAA: 0.00496 ± 0.0029; AGGAGCUACAGCUUCCAUAGUAUUUAGUUA: 0.00791 ± 0.0021; UCCUCCUAGAGCUUGCAUUGUAUUUAGUUA: 0.0216 ± 0.0049.
Regarding UCCUGGAUGUGCUUGCAUAGUAUUUAGUAUA, the “pre-steady-state target cleavage rate” value was determined as 0.0114 ± 0.0039.
As for UCCUGGAUGUCCUUGCAUAGUAUCUUAGUUA, the “pre-steady-state target cleavage rate” value turned out to be 0.0034 ± 0.0025.
The same measure, in the same setting: next, UCCACCUACAGCUUGCAUAGUAUUUCGUUA: 0.0257 ± 0.006.
Turning to UCCUCGUACAGCUUGCAUAGUAUUUAGUAA, the “pre-steady-state target cleavage rate” value came out at 0.0263 ± 0.0049.
On the same count and under the same terms, for UGGACCUACAGCAUUGCAUAGUAUUUAGUUA the value was 0.0665 ± 0.014; for UCCUCCUACAGCUUGCAAAGUAAUUAGUUA, 0.00886 ± 0.0023.
